This is an account of results in ChEMBL document CHEMBL4888484, “Replenishing the malaria drug discovery pipeline: Screening and hit evaluation of the MMV Hit Generation Library 1 (HGL1) against asexual blood stage Plasmodium falciparum ,using a nano luciferase reporter read-out” (2022).

Screen size: about 150,000 compounds; about 540 (0.36%) showed an effect of 50% or more. This is one part of the list.

The assay concerns Plasmodium falciparum. In words: Primary screen in NF54 nanoGlo assay, in single point, at 2uM, 72h; a lower Z score goes with more inhibition. It counts as functional, Erythrocyte. The note with it: timepoint 72 hour.
As to `Cc1cc(N2CCN(Cc3ccccc3)CC2)c2nncn2n1`, the “% Inhibition” value was determined as 4% and the Z score is -0.75.
For `COc1ncccc1N(C)C(=O)c1cc(C)n(-c2cccc(F)c2)n1`, in that order: 0% and -0.01.
Consider `Cc1cc(Cn2nnc(C(=O)NS(=O)(=O)CC3CC3)c2C)on1`, for which the “% Inhibition” value is 5% and the Z score is reported as -0.88.
As for `O=S(=O)(NCc1cccc(-c2nccs2)c1)c1cccs1`, the “% Inhibition” value was -3% and the Z score came out at 0.41.
Taken in the same sequence, the figures for `FCC[C@H]1CCCN(c2nnc(-c3ccon3)s2)C1` were 2% and -0.3.
On to `COc1ccc(C(=O)N2CCCCCNC(=O)[C@@H]3CCCC[C@@H]32)cc1`, for which the “% Inhibition” value came to 2% and the Z score is -0.31.
As to `CC(C)c1c2cc3c(cc2nn1-c1ccccc1)OCCO3`, the “% Inhibition” value turned out to be 38% and the Z score is given as -5.43.
Regarding `COc1ccc(C(=O)NCCNS(=O)(=O)c2ccc(Cl)c3nonc23)cc1OC`, the “% Inhibition” value is recorded as -5% and the Z score came to 0.71.
For `COc1ncccc1CNC(=O)c1ccc2c(c1)OCCO2`, in that order: 1% and -0.14.
For `COC(=O)c1cc(S(=O)(=O)N2CCC[C@H]2C(=O)Nc2ccc(C)c(C)c2)cn1C`, in that order: -11% and 2.05.
In the case of `C=CCn1cc(CN(C)[C@@H](C)c2ccon2)c(C)n1`, the “% Inhibition” value is given as -2% and the Z score is 0.32.
For `CC(C)n1cnnc1CC1CN(C(=O)Nc2ccccc2F)C1`, in that order: 6% and -0.96.
For `O=C(OC[C@H]1CCCCN1)N1CCCCC1`, in that order: 6% and -0.66.
Taken in the same sequence, the figures for `O=C(NCc1ccc(N2CCCC2=O)cc1)[C@@H]1CCCO1` were 6% and -0.83.
For the molecule `Cn1ccnc1C(O)C1CCCN(Cc2cc3cc(F)ccc3o2)C1` (stereo not drawn), the “% Inhibition” value is on record as -9% and the Z score amounted to 1.64.
For `N#Cc1ccc(N2CCC(CN3CCCCC3=O)CC2)cn1`, in that order: -2% and 0.3.
Regarding `C[C@@H](CNC(=O)CN(C)S(C)(=O)=O)c1ccsc1`, the “% Inhibition” value is given as -4% and the Z score was found to be 0.44.
As for `O=C1c2cnn(-c3ccccc3)c2CN1CC(=O)N1CC[C@H]1C1CC1`, the “% Inhibition” value is given as -2% and the Z score is 0.34.
For `Cc1noc(C)c1N(C)C(=O)C[C@@](C)(C(=O)O)c1ccc(Cl)cc1`, in that order: -2% and 0.31.
In the case of `Nc1ncc(-c2cccc(CO[C@H]3CCOC3)c2)c(C(F)(F)F)n1`, the “% Inhibition” value is listed as -5% and the Z score turned out to be 0.84.
Taken in the same sequence, the figures for `Cc1ccnc(Cn2nc(C(F)F)cc2C(F)F)n1` were -2% and 0.31.
Taken in the same sequence, the figures for `CCCn1nnc2cc(S(=O)(=O)N3CCC[C@H](C(=O)NCc4cccc(OC)c4)C3)ccc21` were -24% and 2.1.
Taken in the same sequence, the figures for `Cc1nnc(NCc2cc(-c3ccccc3)n[nH]2)o1` were -16% and 1.37.
With `CC(C)C[C@H](NC(=O)C1=CCCCCC1)c1nc(-c2nnc[nH]2)no1`, the “% Inhibition” value is -2% and the Z score was determined as 0.22.

The % Inhibition is the drop in the measured response relative to a control, in per cent.
